Measurements taken from the supplement of paper PMC12217912.
Some of the results follow. The full chains were built here from the parent and the listed change. Values near 0.05 are background.

B1: TEV protease; numbered along this chain (parent)
chain: MGESLFKGPRDYNPISSSICHLTNESDGHTTSLYGIGFGPFIITNKHLFRRNNGTLVVQSLHGVFKVKDTTTLQQHLVDGRDMIIIRMPKDFPPFPQKLKFREPQREERICLVTTNFQTKSMSSMVSDTSCTFPSGDGIFWKHWIQTKDGQCGSPLVSTRDGFIVGIHSASNFTNTNNYFTSVPKNFMELLTNQEAQQWVSGWRLNADSVLWGGHKVFMVKPEEPFQPVKEATQL

Variants of: B1
Assay: raw area under fraction-flipped curve 0-4 h after induction (AUC4h, not background-subtracted), DNA-recorder readout of cleavage of the substrate (dimensionless); higher = more cleavage of the substrate by the protease variant
Conditions: temperature: 34 °C; time window: 0-4 h after rhamnose induction
Experimental: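 In vivo DNA recorder in E. coli TOP10(DE3) ΔrhaA at 34 °C. Each TEVp single-site mutant (parent TEVp 0) is paired with a single-site variant of the 7-mer TEVs (canonical ENLYFQ|S). The substrate sits between flexible linkers in a Bxb1-sfGFP-TEVs-SsrA fusion, so cleavage stabilises Bxb1 and speeds flipping of a recombination array, read by NGS. The value is the raw area under the fraction-flipped curve over 0-4 h after rhamnose induction (AUC4h), with ≥20 reads per time point. It is not background-subtracted; inactive controls average about 0.047.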
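Also: Bxb1 expression induced with 0.2% (w/v) L-rhamnose at OD600 near 0.5, cultures sampled hourly, flipped fraction per protease–substrate barcode pair counted by paired-end Illumina sequencing.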

Variant | area with substrate ENAYFQS | area with substrate ENDYFQS | area with substrate ENEYFQS | area with substrate ENFYFQS | area with substrate ENGYFQS | area with substrate ENHYFQS | area with substrate ENIYFQS | area with substrate ENKYFQS | area with substrate ENMYFQS | area with substrate ENPYFQS | area with substrate ENQYFQS | area with substrate ENRYFQS | area with substrate ENTYFQS | area with substrate ENVYFQS | area with substrate ENWYFQS | area with substrate ENSYFQS | area with substrate ENNYFQS | area with substrate ENYYFQS | area with substrate ENCYFQS
MGESLFKGPRDYNPISSSICHLTNESDGHTTSLYGIGFGPFIITNKHLFRRNNGTLVVQSLHGVFKVKDTTTLQQHLVDGRDMIIIRMPKDFPPFPQKLKFREPQREERICLVTTNFQTKSMSSMVSDTSCTFPSGDGIFWKHWIQTKDGQCGSPLVSTRDGFIVGIHSASNFTNTNNYFTSVPKNFMELLTNQEAQQWVSGWRLNADSVLQGGHKVFMVKPEEPFQPVKEATQL [W212Q] | 0.0589 | 0.0676 | 0.0653 | 0.0698 | 0.0787 | 0.0543 | 0.0941 | 0.0591 | 0.0644 | 0.0765 | 0.0603 | 0.0588 | 0.0546 | 0.0614 | 0.0448 | – | – | – | –
MGESLFKGPRDYNPISSSICHLTNESDGHTTSLYGIGFGPFIITNKHLFRRNNGTLVVQSLHGVFKVKDTTTLQQHLVDGRDMIIIRMPKDFPPFPQKLKFREPQREERICLVTTNFQTKSMSSMVSDTSCTFPSGDGIFWKHWIQTKDGQCGSPLVSTRDGFIVGIHSASNFTNTNNYFTSVPKNFMELLTNQEAQQWVSGWRLNADSVLWLGHKVFMVKPEEPFQPVKEATQL [G213L] | 0.0663 | 0.056 | – | 0.0517 | – | 0.0665 | – | – | – | – | 0.0555 | 0.0575 | – | 0.0677 | – | 0.0599 | – | – | –
MGESLFKGPRDYNPISSSICHLTNESDGHTTSLYGIGFGPFIITNKHLFRRNNGTLVVQSLHGVFKVKDTTTLQQHLVDGRDMIIIRMPKDFPPFPQKLKFREPQREERICLVTTNFQTKSMSSMVSDTSCTFPSGDGIFWKHWIQTKDGQCGSPLVSTRDGFIVGIHSASNFTNTNNYFTSVPKNFMELLTNQEAQQWVSGWRLNADSVLWGYHKVFMVKPEEPFQPVKEATQL [G214Y] | 0.0558 | 0.05 | – | – | 0.0694 | 0.0628 | – | 0.0755 | – | – | 0.0539 | – | – | 0.0579 | – | 0.0309 | 0.0513 | 0.0399 | –
MGESLFKGPRDYNPISSSICHLTNESDGHTTSLYGIGFGPFIITNKHLFRRNNGTLVVQSLHGVFKVKDTTTLQQHLVDGRDMIIIRMPKDFPPFPQKLKFREPQREERICLVTTNFQTKSMSSMVSDTSCTFPSGDGIFWKHWIQTKDGQCGSPLVSTRDGFIVGIHSASNFTNTNNYFTSVPKNFMELLTNQEAQQWVSGWRLNADSVLWGGHKDFMVKPEEPFQPVKEATQL [V217D] | 0.0636 | 0.0602 | – | 0.055 | – | – | – | 0.0549 | – | 0.0495 | 0.0586 | 0.0559 | 0.0623 | 0.0463 | – | 0.0638 | 0.0502 | – | 0.0524
MGESLFKGPRDYNPISSSICHLTNESDGHTTSLYGIGFGPFIITNKHLFRRNNGTLVVQSLHGVFKVKDTTTLQQHLVDGRDMIIIRMPKDFPPFPQKLKFREPQREERICLVTTNFQTKSMSSMVSDTSCTFPSGDGIFWKHWIQTKDGQCGSPLVSTRDGFIVGIHSASNFTNTNNYFTSVPKNFMELLTNQEAQQWVSGWRLNADSVLWGGHKVFGVKPEEPFQPVKEATQL [M219G] | 0.0536 | 0.0568 | 0.0559 | 0.0538 | 0.0504 | 0.0538 | 0.0908 | 0.0699 | 0.0664 | 0.0553 | 0.0628 | 0.0551 | 0.0575 | 0.0688 | 0.0105 | 0.0602 | 0.0658 | 0.0593 | 0.0545
